According to PubChem BioAssay AID624296 (National Center for Advancing Translational Sciences (NCATS), 2012):
The campaign covered roughly 350,000 compounds. About 9,900 (2.8%) were called active. The shares of active, inactive and inconclusive entries below differ from those in the screen. The call rests on the fitted dose curve; in most records, active means well fitted activation curve with a large enough effect; inconclusive means small, poorly fitted or top-dose-only effect; inactive means no such curve, though single readings can be large or run the other way. Potencies of inconclusive entries are left out as doubtful fits.

assay: A quantitative high throughput screen for small molecules that induce DNA re-replication in MCF 10a normal breast cells.; further: nearly all actives have a fitted effect of over 50% in size; on activity, positive = re-replication: % of control where 0% means no effect; conditions: MCF 10A DNA re-replication, Hoechst nuclear intensity, 48 h; activity, positive = re-replication: at 46.1 µM (top of the series)
Potency means the concentration at half of the fitted maximal effect; tags describe the fitted curve by direction and shape.

Row | SMILES | Potency | activity, positive = re-replication
1 | Cc1cc(N2CCOCC2)nc2ccc(NC(=O)C3CCC(C)CC3)cc12 (stereo not drawn) | inconclusive [activator, single point] | 
2 | N#Cc1ccc(COC(=O)C2CCC(=O)N2)cc1 (stereo not drawn) | inconclusive [activator, partial curve, poor fit] | 
3 | CC1CCCCC1NC(=O)COC(=O)c1c2c(nc3ccccc13)/C(=C/c1ccco1)CC2 (stereo not drawn) | active: 16.4 µM | 
4 | CCOc1ccc(C(=O)C(C)OC(=O)C2CCN(c3ccc(C(F)(F)F)cn3)CC2)cc1 (stereo not drawn) |  | inactive: 10.3%
5 | CC(C)Nc1nnc(SC(C)C(=O)Nc2ccc(N3CCOCC3)cc2)s1 (stereo not drawn) | inconclusive [activator, full curve, poor fit] | 
6 | CCOc1ccc(C2NC(=O)NC(C)=C2C(=O)OCc2ccccc2)cc1 (stereo not drawn) | active: 20.6 µM | 
7 | CCc1ccccc1NC(=O)CSc1nnc(-c2cc(C)[nH]n2)n1N |  | inactive: -3%
8 | COc1ccc(-c2nc(-c3cccc(C)c3)nc(N3CCN(C)CC3)c2C#N)cc1 | inconclusive [activator, single point] | 
9 | Cn1c(/C=C/c2ccc(Br)cc2)c([N+](=O)[O-])c(=O)n(C)c1=O | active: 20.6 µM | 
10 | Cc1ccc(C(NC(N)=O)c2ccccc2)cc1 (stereo not drawn) | inconclusive [activator, partial curve, poor fit] | 
11 | CCc1ccc(NC(=O)CNC(=O)c2nn(-c3ccc(OC)cc3)c(=O)c3ccccc23)cc1 | inconclusive [activator, partial curve, poor fit] | 
12 | CCCCCn1c(=O)[nH]c2cc(C(=O)N3CCN(c4ccc(F)cc4)CC3)ccc2c1=O | inconclusive [activator, partial curve] | 
13 | COc1ccc(C)cc1N(CC(=O)NC(C)c1ccccc1)S(C)(=O)=O (stereo not drawn) | inconclusive [activator, single point] | 
14 | CCCCCCCCCn1c2c(c(=N)c3c1CCC3)CCCC2 | inconclusive [activator, partial curve, poor fit] | 
15 | O=S(=O)(NCC(Nc1ccccc1)c1ccccc1)c1ccc(Cl)cc1 (stereo not drawn) | inconclusive [activator, single point] | 
16 | O=C(Nc1cccc(S(=O)(=O)NCc2ccco2)c1)c1cccc(Cl)c1 |  | inactive: -6.15%
17 | O=c1cc(N/N=C/c2ccccc2)[nH]c(=O)[nH]1 | inconclusive [activator, single point] | 
18 | Cc1c(CC(=O)O)c(=O)oc2cc3occ(-c4ccccc4)c3cc12 | inconclusive [activator, single point] | 
